# Assay results: the supplement of paper PMC10338343
# ± gives the standard deviation. Over roughly 3,700 sequences, “pre-steady-state target cleavage rate” has its median near 0.02; the highest 2% begin near 0.23. The entries are a selection whose mix differs from that of the whole data set.
# Test system: MILI (PIWIL2) piRISC loaded with Kctd7 piRNA (26 nt)
# Assay: pre-steady-state target cleavage rate (min^-1); MIWI and MILI are mouse PIWI proteins and EfPiwi is from a freshwater sponge; tags in brackets are library labels; higher = faster piRNA-guided slicing of the target
# Settings: guide: Kctd7 piRNA 5'p-UGUUAAUCUCUCAGAGAAGGUGACAG; auxiliary factor: 500 nM mouse GTSF1
# Method in brief: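 A transcribed, DNA-blocked target RNA library […] was incubated at 33 °C for 0–8 or 0–960 min with 1 nM active affinity-purified piRISC carrying one synthetic guide, in HEPES–potassium acetate buffer with or without 500 nM GTSF1 partner protein. Uncleaved targets were then sequenced and normalised to depth and to weakly complementary targets. Data from three trials were pooled, with k3 capped at 0.0001 min^-1, and a burst-and-steady-state fit yielded the pre-steady-state cleavage rate.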
# 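Further: 1 nM active piRISC with 0.1 nM target library at 33 °C single turnover.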
row,Sequence,pre-steady-state target cleavage rate
1,UAGUGACACCCCUUCUCUGAGAGAUUAACA,0.143 ± 0.013
2,UAGUCUGUCACCUUCUCUGAGAGAUAACA,0.0928 ± 0.025
3,UAGUGACAGACCUUCUCUGAGAGAUUAUACA,0.0804 ± 0.016
4,UAGUGACACACCUUCUGUGAGAGAAUAACA,0.0317 ± 0.0097
5,UAGUGACUCACCUUCUCUCAGAGAUUAUCA,0.0166 ± 0.0046
6,UAGUGACAGUGCUUCUCUGUGAGUUUAACA,0.0057 ± 0.0017
7,UAGUCAGUCACCUUCUCUGAGACAUUAACA,0.0875 ± 0.014
8,UAGUCUGUCACCAUCUCUGAGAGAUAAACA,0.0989 ± 0.017
9,UAGUGACACACCUUCGCUGAGAGAUUAACA,0.0798 ± 0.0094
10,UAGUGACUCACCUUCUCUGAGAGGUUAACA,0.121 ± 0.017
11,UAGUCUGAGACCUUCUCUGAGAGAUUAUGA,0.0117 ± 0.0042
12,UAGUGUGUCUGGUUCUCUGAGAGAUUAACA,0.0195 ± 0.0066
13,UAGUGAGUCACCUACUCUGAGAGAAUAACA,0.0736 ± 0.024
14,UAGUGACAGACCUUCUCAGAGAGAUUUACA,0.0215 ± 0.012
15,UAGUCUGUCACCUUGUCUGUGAGAUUAACA,0.0334 ± 0.004
16,UAGUGUGGUCACCUUCUCUGAGAGAUUAACA,0.226 ± 0.015
17,UAGUCUGACACCUUCUCUGAGAGAUUAUGA,0.0246 ± 0.0053
18,UAGUCUGUCAACUUCUCUGAGAGAUUAACA,0.162 ± 0.011
19,UAGUGAGUCACCUUCACUGAGUGAUUAACA,0.00784 ± 0.0031
20,UAGUGACACACCUUCUCUGUCAGAUUAACA,0.00727 ± 0.0032
21,UAGUGACAGUGCUACUCUGACAGAUUAACA,< 0.0001
22,UAGUGUGUCUCCUUGUCUGAGAGAUUAACA,0.0441 ± 0.011
23,UAGUGUGUCAGGAUCUCUGAGAGAUUAAGA,0.0118 ± 0.0031
24,UAGUGUGUCACGUUCACUGAGAGAUUAACA,0.15 ± 0.013

row,Sequence,pre-steady-state target cleavage rate
1,UAGUGACAGACCUUCUCUAAGAGAUUAACA,0.0861 ± 0.01
2,UAGUGACACAGGUUCUCUGAGAGAUUAACA,0.0267 ± 0.0054
3,UAGUGACACACACUUCUCUGAGAGAUUAACA,0.0398 ± 0.011
4,UAGUGACUGACCUUCUGUGAGAGAUUAACA,0.11 ± 0.011
5,UAGUGUGUCACGUUCUCUCAGAGAUUAACA,0.0411 ± 0.0058
6,UAGUGAGUCACCUUCUCUGACUGAUUAACA,0.00608 ± 0.0039
7,UAGUGACAGUCCUUCUCGGAGAGAUUAACA,0.0241 ± 0.0054
8,UAGUGACAGACCUUCUCUGUGAGAUAAACA,0.0102 ± 0.0046
9,UAGUGACAGACUUUCUCUGAGAGAUUAACA,0.0879 ± 0.0072
10,UAGUGACAGUGCUUCUCUGAGAGAUUAAGCA,0.00719 ± 0.003
11,UAGUGACUCACCUUCUCUGAGACUAAUUGA,< 0.0001
12,UAGUGACAGUGGAUCUCUGAGAGAUUAACA [g2:g17:cont:t1A],0.00287 ± 0.0017
13,UAGUGAGUCUCCUUCUCUGAGAGAUUAUGA,0.00809 ± 0.0046
14,UAGUCUGUCAGCUUCUCUGAGACAUUAACA,0.0133 ± 0.0023
15,UAGUGACAGACCUUCUCUGAGAGAUUACACA,0.0919 ± 0.02
16,UAGUCUGUCACCUUCUCUGAGAGAUUAACU [g2:g26:cont:t1U],0.244 ± 0.026
17,UAGUGACAGACCUUCAGUGAGAGAUUAACA,0.0256 ± 0.0089
18,UAGUGACAGUGCAUCUCUGAGAGAUUAACA,0.00598 ± 0.0027
19,UAGUGACUCACCUUCACUGUGAGAUUAACA,0.041 ± 0.0056
20,UAGUGUGUCACCUUCUGUGAGAGAUUUUGA,0.00564 ± 0.0044
21,UAGUCUGUCACCUUCUCAGAGAGAUUAACA,0.177 ± 0.019
22,UAGUGACAGACCUUCACUGACAGAUUAACA,0.0267 ± 0.013
23,UAGUGACAGUGGAUCACUGAGAGAUUAUCA,< 0.0001
24,UAGUCUCUCACCUUCUCUGAGAGAAUAACA,0.0817 ± 0.019

row,Sequence,pre-steady-state target cleavage rate
1,UAGUGUGUCACCUUCACAGAGAGAUUAACA,0.0868 ± 0.0081
2,UAGUGAGUCACCUUCUCUGAGGAGAUUAACA,0.0247 ± 0.011
3,UAGUGACUCUCCUUCUCUGAGAGAUUAACA,0.131 ± 0.013
4,UAGUGAGUCAGGUUCUCUGAGAGAUUAACA,0.113 ± 0.0081
5,UAGUCUGUCACCUUCUGAGAGAGAUUUUGA,0.0143 ± 0.0076
6,UAGUGAGUCACCAUCUCUCAGAGAUUAACA,0.045 ± 0.01
7,UAGUGAGUCACCUUCUGUGAGAGAUUAUGA,0.02 ± 0.0074
8,UAGUGAGUCACCUUGUCUGAGAGAUUUACA,0.0249 ± 0.012
9,UAGUCUAUCACCUUCUCUGAGAGAUUAACA,0.19 ± 0.015
10,UAGUGACAGUGCUCUCUCUGAGAGAUUAACA,0.0146 ± 0.0033
11,UAGUCAGUCACGUUCUCUGAGAGAUUAACA,0.199 ± 0.0078
12,UAGUGUCUCAGCUUCUCUGAGAGAUUAACA,0.162 ± 0.018
13,UAGUGUGUCACCUUCUCUCAGACAUUAACA,0.0267 ± 0.0093
14,UAGUCUGUCACCUAGACUGAGAGAUUAACA,0.0691 ± 0.004
15,UAGUGACAGACCUGUCUCUGAGAGAUUAACA,0.0606 ± 0.0084
16,UAGUGACAGUGCUACUGUGAGAGAUUAACA,0.00417 ± 0.0017
17,UAGUGACAGUGCUUCAGUGAGAGAUUAACA,0.00976 ± 0.0039
18,UAGUGUGUCAGCUUCACUGAGAGAUUAACA,0.12 ± 0.0093
19,UAGUGACAGUGGUUCUCUGAGAGAUUAACC [g2:g18:cont:t1C],0.00642 ± 0.0014
20,UAGUCUGAGUCCUUCUCUGAGAGAUUAAGA,0.0185 ± 0.0054
21,UAGUGACUCACCUUCGUCUGAGAGAUUAACA,0.0458 ± 0.0089
22,UAGUGACACACUCUUCUCUGAGAGAUUAACA,0.127 ± 0.018
23,UAGUCUGUCACCUACUCUGAGAGAUUAAGA,0.0796 ± 0.014
